# Measured values taken from PubChem BioAssay (Tox21).
# Values joined by “and” are separate entries in the source; they are usually repeats but may differ in a detail not shown here. Equal entries are not always repeated. Active and inactive are the calls of the source. Unless noted, calls come from the whole dose curve; as a rule, active = well fitted curve in the direction sought with a large enough effect in the repeat runs; inconclusive = weak or mixed curves; inactive = no such curve, though single readings can be large; an effect the other way counts as inactive or inconclusive.
# What was measured:
# [1] = qHTS assay to identify small molecule antagonists of the thyroid receptor (TR) signaling pathway - cell viability counter screen (AID 743064); conditions: GH3.TRE-Luc viability, CellTiter-Fluor, 24 h; activity change, negative = cytotoxic: at 70.3 µM (top of the series) unless noted; note: nearly all actives have a fitted effect of over 50% in size; note: potency is the fitted concentration of half-maximal effect; for activity change, negative = cytotoxic: % is set by controls: 0 for no effect and ±100 for the full control effect
# Method in brief: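 GH3.TRE-Luc rat pituitary cells dosed after 4 hr plating, co-stimulated with T3 at 1 nM final, incubated 23.5 h at 37 C. Viability measured in the same wells by CellTiter-Fluor fluorescence after 30 min further at 37 C.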
# [2] = qHTS assay to identify small molecule antagonists of the thyroid receptor (TR) signaling pathway (AID 743065); note: % is set by controls: 0 for no effect and ±100 for the full control effect; nearly all actives have a fitted effect of over 55% in size
# Method in brief: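 GH3.TRE-Luc rat pituitary cells carrying two TR response elements driving luciferase were plated for 4 h, given compound plus 1 nM T3 (final), and incubated 23.5 h at 37 C. ONE-Glo luminescence measured reporter inhibition; CellTiter-Fluor fluorescence tracked cytotoxicity.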
# [3] = qHTS assay to identify small molecule antagonists of the estrogen receptor alpha (ER-alpha) signaling pathway - cell viability counter screen (AID 743074; calls by dose curve; note: nearly all actives have a fitted effect of over 45% in size; note: potency is the fitted concentration of half-maximal effect)
# [4] = molecular target: Estrogen receptor (Homo sapiens) (UniProt P03372); experiment: qHTS assay to identify small molecule antagonists of the estrogen receptor alpha (ER-alpha) signaling pathway (AID 743069; active = well fitted curve in the direction sought with a large enough effect in the signal ratio in the repeat runs, not every such curve was filed as active; inconclusive = weak or mixed curves, or effect the other way; inactive = no such curve, though single readings can be large or run the other way; the % refers to the signal ratio; note: potency is the fitted concentration of half-maximal effect; for activity, negative = inhibition: % is set by controls: 0 for no effect and ±100 for the full control effect); conditions: HEK293 ER-alpha-UAS-bla, beta-lactamase ratio, antagonist mode
# Sequence of UniProt P03372 (P03372 whole entry, looked up): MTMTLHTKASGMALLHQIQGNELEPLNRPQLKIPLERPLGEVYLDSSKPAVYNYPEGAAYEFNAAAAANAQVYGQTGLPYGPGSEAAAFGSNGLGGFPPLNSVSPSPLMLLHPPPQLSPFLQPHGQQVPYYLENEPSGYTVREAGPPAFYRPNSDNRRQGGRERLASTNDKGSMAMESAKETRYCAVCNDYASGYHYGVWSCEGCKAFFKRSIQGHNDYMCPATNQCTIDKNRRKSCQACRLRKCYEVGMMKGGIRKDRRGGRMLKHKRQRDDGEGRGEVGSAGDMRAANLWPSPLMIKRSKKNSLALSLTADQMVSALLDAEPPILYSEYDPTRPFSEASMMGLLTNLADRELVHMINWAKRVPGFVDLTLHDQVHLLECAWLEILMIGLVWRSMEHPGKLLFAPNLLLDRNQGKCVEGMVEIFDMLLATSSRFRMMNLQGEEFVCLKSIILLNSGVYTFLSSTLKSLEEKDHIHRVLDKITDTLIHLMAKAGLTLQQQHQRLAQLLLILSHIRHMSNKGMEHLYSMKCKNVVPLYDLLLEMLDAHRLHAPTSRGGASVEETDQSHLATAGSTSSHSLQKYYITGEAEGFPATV
# Method in brief: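 Screening used a UAS-driven beta-lactamase reporter integrated into HEK293 cells expressing ER-alpha, stimulated with 17beta-estradiol alongside test compounds over 18 hr at 37C; signal came from LiveBLAzer B/G FRET fluorescence.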
# [5] = system: thyroid hormone receptor (rat, GH3 cells); experiment: qHTS assay to identify small molecule agonists of the thyroid receptor (TR) signaling pathway (AID 743066; calls by dose curve; note: % is set by controls: 0 for no effect and ±100 for the full control effect); conditions: GH3.TRE-Luc cells, TR agonist luciferase, 24 h; activation: at 83.9 µM (top of the series) unless noted
# [6] = molecular target: Estrogen receptor (Homo sapiens) (UniProt P03372); experiment: qHTS assay to identify small molecule agonists of the estrogen receptor alpha (ER-alpha) signaling pathway (AID 743075; calls by dose curve; note: potency is the fitted concentration of half-maximal effect)
# [7] = qHTS assay to identify small molecule antagonists of the estrogen receptor alpha (ER-alpha) signaling pathway using the BG1 cell line (AID 743080; calls by dose curve;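 note: BG1 cells stimulated with 17beta-estradiol alongside compound; nearly all actives have a fitted effect of over 25% in size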; note: potency is the fitted concentration of half-maximal effect; for activity change, negative = inhibition: % is set by controls: 0 for no effect and ±100 for the full control effect); conditions: BG1Luc4E2 ERE-luciferase antagonist mode, luminescence; activity change, negative = inhibition: at 70.3 µM (top of the series) unless noted
# Method in brief: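 Quantitative HTS on the Tox21 10K library: BG1 cells with endogenous ER-alpha and ERE-luciferase reporter, 17beta-estradiol stimulation, 21.5 h compound exposure, luminescence endpoint with parallel fluorescence cytotoxicity counter-read.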
# [8] = molecular target: Estrogen receptor (Homo sapiens) (UniProt P03372); experiment: qHTS assay to identify small molecule agonists of the estrogen receptor alpha (ER-alpha) signaling pathway using the BG1 cell line (AID 743079); conditions: BG1Luc4E2 cells, ERE-luciferase agonist, 22 h; activation: at 70.3 µM (top of the series) unless noted; note: % is set by controls: 0 for no effect and ±100 for the full control effect; nearly all actives have a fitted effect of over 20% in size
# Aromatase (Homo sapiens) = Aromatase (Homo sapiens) (UniProt P11511); experiment: qHTS assay to identify aromatase inhibitors (AID 743083); note: potency is the fitted concentration of half-maximal effect; nearly all actives have a fitted effect of over 55% in size
# Sequence of UniProt P11511 (P11511 whole entry, looked up): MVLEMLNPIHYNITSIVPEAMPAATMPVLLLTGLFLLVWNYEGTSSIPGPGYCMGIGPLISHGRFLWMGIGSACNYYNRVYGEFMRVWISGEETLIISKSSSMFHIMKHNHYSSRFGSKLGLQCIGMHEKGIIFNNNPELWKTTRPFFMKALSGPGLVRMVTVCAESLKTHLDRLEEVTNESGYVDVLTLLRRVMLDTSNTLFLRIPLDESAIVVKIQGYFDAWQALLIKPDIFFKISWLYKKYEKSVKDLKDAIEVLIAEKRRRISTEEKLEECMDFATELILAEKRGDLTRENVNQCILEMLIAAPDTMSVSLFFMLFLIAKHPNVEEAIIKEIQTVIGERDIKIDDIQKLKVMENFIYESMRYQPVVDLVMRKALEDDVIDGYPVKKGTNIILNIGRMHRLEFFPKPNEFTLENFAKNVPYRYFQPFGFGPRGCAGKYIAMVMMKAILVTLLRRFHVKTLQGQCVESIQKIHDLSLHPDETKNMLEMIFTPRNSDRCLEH
# [9] = qHTS assay to identify aromatase inhibitors - cell viability counter screen (AID 743084); conditions: MCF-7 aro ERE viability, CellTiter-Fluor, 24 h; activity change, negative = cytotoxicity: at 70.3 µM (top of the series);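 note: cells stimulated with testosterone during compound exposure; potency is the fitted concentration of half-maximal effect; nearly all actives have a fitted effect of over 55% in size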
# [10] = activity, negative = inhibition: at 69.4 µM (top of the series) unless noted
# Tags give direction and shape of the fitted curve or compound fluorescence and quenching.
smiles,measurement,setting,value
CN(C)CCOC(=O)C(c1ccccc1)C1(O)CCCC1 (configuration not stated),Potency,[1],inactive
C=CCn1cc[n+](C)c1,Potency,[1],inactive
same,Potency,[2],inactive
CCCOC(=O)c1ccccc1,Potency,[1],"inconclusive: 4.86 µM [rising, full curve, poor fit]"
C=C1C2CCC(C2)C1(C)C (configuration not stated),Potency,[1],inactive
same,Potency,[3],"inconclusive: 0.123 µM [rising, full curve, poor fit]"
Nc1nc(F)nc2c1ncn2[C@@H]1O[C@H](CO)[C@@H](O)[C@@H]1O,Potency,[1],"inconclusive: 26.6 µM [cytotoxic, partial curve, poor fit] and inconclusive: 29.8 µM [cytotoxic]"
same,"activity, negative = inhibition",[4]; [10],inconclusive: 17.6%
same,"activity, negative = inhibition",[4]; at 69.4 µM (top of the series),inactive: 1.23%
same,Potency,[3],"inconclusive: 2.13 µM [rising, full curve, poor fit]"
CC(C=O)Cc1ccc(C(C)C)cc1 (configuration not stated),Potency,[1],inactive
Cc1nc2ccccc2c(=O)o1,Potency,[1],"inconclusive: 2.74 µM [rising, single point]"
same,Potency,[5],inactive
CC(C)(C)NCC(O)COc1cccc2c1C[C@H](O)[C@H](O)C2 (some centres not stated),Potency,[1],inactive
same,Potency,[3],inactive
CCC(=O)Oc1ccc(/C(CC)=C(\CC)c2ccc(OC(=O)CC)cc2)cc1,Potency,[1],active: 54.5 µM
same,Potency,[4]; [10],active: 54.9 µM [inconclusive]
same,Potency,[6],active: 0.0014 µM [inconclusive]
same,Potency,[7],active: 61.1 µM
O=c1[nH]c(=O)n([C@H]2C[C@H](O)[C@@H](CO)O2)cc1F,Potency,[1],"inconclusive: 5.31 µM [cytotoxic, partial curve, poor fit]"
same,Potency,[4]; [10],"inconclusive: 0.535 µM [fluorescent, full curve]"
same,Potency,[3],active: 0.379 µM
same,Potency,[7],"inconclusive: 0.0133 µM [falling, full curve, poor fit]"
O=C(O)CCS,Potency,[1],inactive
same,Potency,[2],inactive
same,Potency,[7],inactive
Cc1ccc(S(=O)(=O)O)cc1C,Potency,[1],"inconclusive: 27.3 µM [rising, single point]"
same,Potency,[4]; [10],"inconclusive: 21.7 µM [activator, full curve, poor fit]"
same,Potency,[3],inactive
same,Potency,[8],inactive
same,Potency,[7],inactive
O=Cc1ccc(Cl)c([N+](=O)[O-])c1,Potency,[1],inactive
same,"activity, negative = inhibition",[4]; [10],inconclusive: 37.9%
same,activation,[8],inconclusive: 3.02% [phenotype inactive]
same,"activity change, negative = inhibition",[7],inconclusive: 0.778%
same,Potency,Aromatase (Homo sapiens),"inconclusive: 68.6 µM [inhibitor, single point]"
same,Potency,[9],"inconclusive: 48.6 µM [cytotoxic, partial curve]"
